Measured values as given in PubChem BioAssay AID493208 (National Center for Advancing Translational Sciences (NCATS), 2011).
The whole screen tested about 44,000 compounds, of which about 340 (0.77%) were called active. Another 5% or so got no clear call; they are omitted. The call rests on the fitted dose curve; in most records, active means well fitted inhibition curve with a large enough effect; inconclusive means small, poorly fitted or top-dose-only effect; inactive means flat fitted curve, though single readings scatter. The list shows a part of the results.

Experiment: Acumen qHTS Assay for Inhibitors of the mTORC1 Signaling Pathway in MEF (Tsc2-/-, p53-/-) Cells: Sytravon;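 further: plate controls were DMSO for no effect and rapamycin for full effect; nearly all actives have a fitted effect of over 50% in size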
Details: phospho-rpS6 immunofluorescence/PI, 24 h; series mostly up to 38.3 µM; activity change, negative = inhibition: at the top concentration
Procedure, shortened: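 Read-out: phospho-S6 Alexa-488 intensity over PI intensity per well, scored as % active cells using thresholds from rapamycin (7.5 nM) and DMSO controls. Tsc2-/-, p53-/- MEFs exposed to compound for 24 h; PI cell count recorded as viability.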

Activity change, negative = inhibition, inactive:
CC(C)c1ccc(NC(=O)C2CCC(CNS(=O)(=O)c3ccc4c(c3)CCCC(=O)N4)CC2)cc1 (stereo not drawn) 5.05%
COc1ccc(CNC(=O)CCn2c(=O)c3cccn3c3ccc(F)cc32)cc1OC -6.98%
CCN1C(=O)c2ccccc2S(=O)(=O)c2ccc(C(=O)NCc3ccc(C)cc3)cc21 -1.01%
CCOC(=O)c1[nH]c(C)c(CCC(=O)N2CCN(c3ccc(Cl)cc3)CC2)c1C -1.35%
CCS(=O)(=O)c1nc(S(=O)(=O)c2ccc(Cl)cc2)c(NCc2ccc(Cl)cc2)s1 -4.55%
COc1ccc(-c2ccc(=O)n(CC(=O)Nc3ccc(Br)cc3F)n2)cc1 -0.233%
Cn1c(=O)c2c(-c3ccccc3)n(-c3cccc(C#N)c3)cc2n(C)c1=O -3.99%
O=C(O)c1ccc(Nc2ncnc3scc(-c4ccccc4)c23)cc1 0.363%
CCc1ccc2nc(N(Cc3cccnc3)C(=O)Cc3ccccc3)sc2c1 0.799%
COc1ccc(Cc2c(C)nn(-c3nc(C)c(C(=O)Nc4cccc(C(C)=O)c4)s3)c2C)cc1 -1.07%
CCC(C(=O)NCc1ccccc1Cl)n1c(=O)c2cccn2c2ccccc21 (stereo not drawn) -2.73%
COC(=O)c1cc(OC)c(OC)cc1NC(=O)c1ccc2c(c1)CCN2S(C)(=O)=O 5.53%
Cc1ccc2c(c1)N(C(=O)c1ccc(F)cc1)C(C)(C)CC2(C)c1ccccc1 (stereo not drawn) -10.9%
O=C(NCc1ccccc1)c1c2c(nc3ccccc13)C(=O)N(C1CCCCC1)C2 -7.69%
CCc1ccccc1N1C(=O)N(Cc2cc(=O)n3ccccc3n2)c2ccccc2S1(=O)=O -1.02%
COc1ccc(S(=O)(=O)N(CCc2ccccc2)CC(=O)Nc2cc(Cl)ccc2C)cc1 -9.24%
CCCSc1nnc(NC(=O)c2cc(=O)c3ccccc3o2)s1 -1.35%
CCOC(=O)N1CCc2c(sc3c2c(=O)n(CCc2ccccc2)c(=O)n3CC(=O)Nc2ccccc2C)C1 -1.02%
NC(=O)c1c(NC(=O)CS(=O)(=O)c2ccc(Cl)cc2)sc2c1CCCC2 -17.7%
O=C(c1cccc(Cl)c1)N(Cc1cccc(F)c1)C1CCS(=O)(=O)C1 (stereo not drawn) 3.38%
COC(=O)c1cc2sccc2n1Cc1c(C)cc(C)cc1C -3.7%
COc1ccc(NC(=O)C2CCCN(S(=O)(=O)c3ccc4[nH]c(=O)ccc4c3)C2)cc1Cl (stereo not drawn) -6.25%
Cc1ccc(NC(=O)C2CCN(C(=O)c3sc4nc[nH]c(=O)c4c3C)CC2)cc1F 0.242%
Cc1ccc(-c2nn(CCC(=O)Nc3ccc(OC(F)(F)F)cc3)c(=O)c3ccccc23)cc1 -5.84%
CCOc1cccc(C(=O)N(Cc2ccc(C(C)C)cc2)C2CCS(=O)(=O)C2)c1 (stereo not drawn) 2.01%
COc1ccccc1C(=O)Nc1ccccc1OCc1cc(=O)n2cc(C)sc2n1 -12.9%
CCN1C(=O)C(Cc2nc3ccccc3c(=O)n2-c2cccc(C)c2)c2ccccc21 (stereo not drawn) 1.04%
Cc1ccccc1NC(=O)c1c(C)oc2ccc(O)c(CN(C)Cc3ccccc3)c12 -17.9%
Cc1ccc(-c2noc(-c3ccccc3OCC(=O)Nc3ccccc3[N+](=O)[O-])n2)cc1 0.844%
CC(C)Oc1ccc(C(=O)NCCc2csc(-c3cccc(F)c3)n2)cc1 -0.741%
O=C(Nc1ncc(Cc2ccc(F)cc2)s1)c1ccc2c(c1)CC(c1ccccc1)OC2=O (stereo not drawn) -2.42%
CCCCCn1c(CCCNC(=O)c2ccccc2)nc2ccccc21 3.24%
CCCC(=O)N1c2nc(-c3ccco3)nn2C2(CCCCC2)[C@@H]2CCCC[C@@H]21 -4.36%
Cc1nn(C)c2c1c(C(F)(F)F)cc(=O)n2CC(=O)Nc1ccc(F)cc1F 5.91%
Cc1nnc(N2CCC(C(=O)NC3CCC(C)CC3)CC2)c2nn(-c3ccc(Cl)cc3)c(C)c12 (stereo not drawn) -5%
Cc1ccccc1NC(=O)CSc1nccn1C 0.321%
Cc1cccc(N(C)C(=O)Cn2cnc3nc4c(cc3c2=O)CCCC4)c1 -7.83%
Cc1cc(C)c(NC(=O)C(C)n2nc(C)c3sc4ccccc4c3c2=O)c(C)c1 (stereo not drawn) 7.83%
COc1cccc(N2CC(NC(=O)c3cccs3)CC2=O)c1 (stereo not drawn) 0.506%
Cc1cc(Cl)ccc1NC(=O)C1CCCN(c2nnc(C)c3c(C)n(-c4ccccc4)nc23)C1 (stereo not drawn) -7.06%
COc1cccc(CNC(=O)CCc2c(C)nn(-c3ccc(N4CCCC4)nn3)c2C)c1 0.352%
CC(CCc1ccccc1)NC(=O)CSc1n[nH]c(-c2ccccc2Cl)n1 (stereo not drawn) -12.6%
COc1ccc(OC(=O)c2cn(-c3cccc(OC)c3)c(=O)c3ccccc23)cc1 -1.49%
O=S(=O)(NCC(c1ccco1)S(=O)(=O)c1cccs1)c1ccccc1 (stereo not drawn) -15.8%
Cc1ccc(OC(C)C(=O)N2CCN(CCc3ccccn3)CC2)cc1C (stereo not drawn) -8.96%
Cc1cccc(OCC(=O)Nc2ccc3nc(SCc4ccccc4)sc3c2)c1 -4.22%
Cc1nc2ccccc2n1CCc1nc2c3ccccc3nc(SCc3ccccc3F)n2n1 4.44%
CCc1ccc(CNC(=O)c2ccc(Cn3c(=O)c4cccn4c4cccnc43)cc2)cc1 -3.84%
